# Reference: PubChem BioAssay AID1645882 (National Center for Advancing Translational Sciences (NCATS), 2021)
# In all, about 16,000 compounds went through this assay and about 120 (0.75%) were called active. About 4% were inconclusive and are not listed. Calls come from the whole dose curve; as a rule, active = well fitted inhibition curve with a large enough effect; inconclusive = small, poorly fitted or top-dose-only effect; inactive = no such curve, though single readings can be large or run the other way. The list shows a part of the results.
# Target: Rap guanine nucleotide exchange factor 3 (Homo sapiens) (UniProt O95398)
# Test: Validation qHTS for antagonist of cAMP-regulated guanine nucleotide exchange factor 3 (EPAC1);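 note: plate controls were DMSO for no effect and ATA control for full effect; nearly all actives have a fitted effect of over 75% in size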
# Conditions: EPAC1 Rap1B-BODIPY-GDP exchange, fluorescence; series mostly up to 150 µM; activity change, negative = inhibition: at the top concentration
# How it was run: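 EPAC1 (100 nM) mixed with 250 nM RAP1B-BODIPY-GDP and 50 uM GDP; compounds in concentration series, 5 min at room temperature. Fluorescence (ex 480/em 540 nm) read every 5 min for 30 min; normalized to ATA control and DMSO.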
# Sequence of UniProt O95398 (O95398 whole entry, looked up): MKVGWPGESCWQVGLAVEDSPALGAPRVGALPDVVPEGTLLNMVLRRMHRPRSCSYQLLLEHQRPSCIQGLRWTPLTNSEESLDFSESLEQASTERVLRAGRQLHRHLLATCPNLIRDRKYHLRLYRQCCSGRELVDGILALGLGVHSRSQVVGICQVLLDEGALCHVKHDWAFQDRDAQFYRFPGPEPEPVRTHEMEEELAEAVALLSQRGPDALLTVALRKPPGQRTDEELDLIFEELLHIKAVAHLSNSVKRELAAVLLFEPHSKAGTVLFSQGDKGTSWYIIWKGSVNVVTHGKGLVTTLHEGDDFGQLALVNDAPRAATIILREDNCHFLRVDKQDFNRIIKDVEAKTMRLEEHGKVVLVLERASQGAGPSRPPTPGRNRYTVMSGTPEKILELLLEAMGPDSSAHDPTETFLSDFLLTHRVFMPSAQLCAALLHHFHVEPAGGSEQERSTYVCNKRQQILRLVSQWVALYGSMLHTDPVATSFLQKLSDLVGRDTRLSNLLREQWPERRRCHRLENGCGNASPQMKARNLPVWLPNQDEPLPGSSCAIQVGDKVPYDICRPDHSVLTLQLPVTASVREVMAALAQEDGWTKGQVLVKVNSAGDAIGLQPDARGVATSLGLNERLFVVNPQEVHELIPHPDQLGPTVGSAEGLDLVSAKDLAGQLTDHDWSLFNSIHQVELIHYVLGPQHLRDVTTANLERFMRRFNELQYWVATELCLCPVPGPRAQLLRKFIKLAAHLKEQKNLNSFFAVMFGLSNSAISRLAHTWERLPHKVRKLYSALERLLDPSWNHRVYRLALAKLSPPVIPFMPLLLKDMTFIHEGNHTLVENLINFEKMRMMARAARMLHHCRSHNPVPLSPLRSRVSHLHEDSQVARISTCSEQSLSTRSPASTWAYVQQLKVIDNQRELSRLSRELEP
row,Compound,"activity change, negative = inhibition"
1,CC1CC[C@@]2(OC1)OC1CC3C4CC[C@H]5CC(O)CC[C@@]5(C)C4CC[C@]3(C)C1C2C (stereo partly specified),inactive: 12.8%
2,COCCn1c(=O)c(-c2cccc(C#N)c2)nc2cnc(OCc3ccccc3)nc21,inactive: -2.25%
3,CS(=O)(=O)N1CCC[C@@]2(CCN(C(=O)Nc3cccc(F)c3)C2)C1,inactive: 16.2%
4,CC(CCc1ccccc1)NCC(O)c1ccc(O)c(C(N)=O)c1 (stereo unspecified),inactive
5,O=C(O)c1ccccc1[O-].O=C(O)c1ccccc1[O-].[Zn+2],inactive: -12.3%
6,COCCn1c(=O)c(CCc2ccccc2)nc2cnc(Oc3ccccc3)nc21,inactive: 4.44%
7,CCOC(=O)[C@H](CCc1ccccc1)N[C@@H](C)C(=O)N1Cc2ccccc2C[C@H]1C(=O)O,inactive: 11.6%
8,OC1(c2cccnc2)CCN(Cc2ccc3c(c2)CN(Cc2ccc4nsnc4c2)CCO3)CC1,inactive: 9.52%
9,CC1CC(OC(=O)C(O)c2ccccc2)CC(C)(C)C1 (stereo unspecified),inactive: -10.4%
10,COCC(=O)N1CCC2(CCCN(c3ccccc3)C2)CC1,inactive: 14.7%
11,Cc1ncc2c(c1CNS(=O)(=O)N(C)C)CCN(C(=O)c1ccc(F)cc1Cl)C2,inactive: 0.14%
12,Cc1nc(-c2coc3c(O)c(O)ccc3c2=O)cs1,inactive: -29.1%
13,NC(C(=O)N[C@@H]1C(=O)N2C(C(=O)O)=C(Cl)CS[C@H]12)c1ccccc1 (stereo partly specified),inactive: 7.93% [at 75.8 µM]
14,CCOC(=O)c1c(N)sc2c1CCN(Cc1ccccc1)C2,inactive: 19%
15,CC(=O)Oc1ccc2c(c1)CC[C@@H]1[C@@H]2CC[C@]2(C)[C@@H](O)CC[C@@H]12,inactive: 55.2%
16,COc1ccc(C(Cl)=C(c2ccc(OC)cc2)c2ccc(OC)cc2)cc1,inactive
17,Cc1oncc1C(=O)Nc1ccc(C(F)(F)F)cc1,inactive
18,O=c1[nH]c2cc(C(F)(F)F)c(N3CCOCC3)cc2n(CP(=O)(O)O)c1=O,inactive: 14.5%
19,Nc1ccn(C2CO[C@H](CO)O2)c(=O)n1 (stereo partly specified),inactive: 184%
20,CN(C)c1ccc(C=O)cc1[N+](=O)[O-],inactive: 1.83%
21,O=C(O)c1cccnc1Nc1cccc(C(F)(F)F)c1,inactive
22,OCc1ccccc1O[C@H]1OC(CO)C(O)C(O)C1O (stereo partly specified),inactive: 7.04%

row,Compound,"activity change, negative = inhibition"
1,Cc1noc(C)c1-c1nc(N(C)C)c2ccccc2n1,inactive: 9.74%
2,CC(C)c1nc(C(=O)N2CCOc3ccc(CN4CCN(c5ccccn5)CC4)cc3C2)cs1,inactive: 13%
3,Cc1cc(C)c(C(=O)NCc2nc(-c3cccc(NC(=O)C4CCCN(C)C4)c3)oc2C)[nH]1 (stereo unspecified),inactive: 22%
4,COc1ccccc1CNc1cc(-c2c(C)noc2C)ncn1,inactive: -9.34%
5,CCOC(=O)C[C@H]1c2ccc(C(F)(F)F)cc2S(=O)(=O)N1Cc1ccccc1,inactive: -6.92%
6,O=c1ccc2ccc(O)cc2o1,inactive: 1.97%
7,COc1cccc(Cn2c(=O)c(-c3cccs3)nc3cnc(N4CCNCC4)nc32)c1,inactive: -5.31%
8,CCCCCC[C@@H]([C@@H](C)O)n1cnc2c(N)ncnc21,inactive
9,CC1C(=O)OC2C(O)C34C5CC(C(C)(C)C)C36C(OC(=O)C6O)OC4(C(=O)O5)C12O (stereo unspecified),inactive: 2.22%
10,C[N+](C)(C)CCCCCC[N+](C)(C)C,inactive
11,CC[N+](C)(C)Cc1ccccc1Br,inactive: 4.01% [at 75.8 µM]
12,CCCCCCCCc1ccc(-c2ccc(C(=O)O)cc2)cc1,inactive: 6.32% [at 75.8 µM]
13,COc1ccc(C(=O)NCC2Cc3cc(F)cc(-c4cncnc4)c3O2)cc1 (stereo unspecified),inactive: -1.25%
14,Cc1cc(O)c(C=O)c2c1C(=O)Oc1c(C)c(O)c3c(c1O2)C(O)OC3=O (stereo unspecified),inactive: -23.6%
15,CN1C(C)(C)CCCC1(C)C,inactive: 6.47%
16,O=c1[nH]c(=O)n(C2CC(O)C(CO)O2)cc1C(F)(F)F (stereo unspecified),inactive: 6.21%
17,CCCCc1c(C)[nH]c2c(OC)cccc2c1=S,inactive: 12.9%
18,COc1ccc(CNc2ccnc(-c3ccc(C(=O)N(C)C)cc3)n2)c(OC)c1,inactive: 3.57%
19,N[C@@H](CCC(=O)N[C@H](CSN=O)C(=O)NCC(=O)O)C(=O)O,inactive: 10.8% [at 75.8 µM]
20,C[C@@H]1C[C@H]2[C@@H]3CCC4=CC(=O)C=C[C@]4(C)[C@@]3(F)[C@@H](O)C[C@]2(C)[C@@]1(O)C(=O)COC(=O)c1cccc(S(=O)(=O)O)c1,inactive: 20.2%
21,CCCCCCCCCCCCCC(=O)N[C@@H](C)[C@H](O)c1ccccc1,inactive: 13.7% [at 15.3 µM]
22,Cc1cc(NC(=O)Nc2ccc(N(C)C)cc2)c2cc(F)cc(F)c2n1,inactive: -16.4%

row,Compound,"activity change, negative = inhibition"
1,Cc1onc(-c2c(Cl)cccc2Cl)c1C(=O)N[C@@H]1C(=O)N2[C@@H]1SC(C)(C)[C@@H]2C(=O)O,inactive: 48.7%
2,COCCn1c(=O)c(-c2cccc(C#N)c2)nc2cnc(N3CCOCC3)nc21,inactive: 13.6%
3,COc1cc(OC)c(C(C)=O)c(O)c1C,inactive: 21%
4,OC[C@H]1O[C@@H](n2cnc3c2NC=NC[C@H]3O)C[C@@H]1O,inactive: 2.97%
5,N#CCCn1c(=O)c(-c2ccc(Cl)cc2)nc2cnc(Oc3cccc(Cl)c3)nc21,inactive: 17.9%
6,CC1(C)Oc2ccc(C#N)cc2[C@@H](N2CCCC2=O)[C@@H]1O,inactive: 18.7%
7,CCCCC(=O)O[C@@]1(C(=O)CO)C(C)CC2C3CCC4=CC(=O)C=C[C@@]4(C)[C@]3(F)C(O)C[C@]21C (stereo partly specified),inactive: -4.05%
8,COc1cccc(Cn2c(=O)c(-c3ccc(Cl)cc3)nc3cnc(OC)nc32)c1,inactive: 5.04%
9,CNc1ncncc1-c1ccc(C(=O)N(C)C)cc1,inactive: 20.2%
10,CCNc1ncc2nc(-c3cccc(C#N)c3)c(=O)n(Cc3cccc(OC)c3)c2n1,inactive: -10.8%
11,CN[C@@H]1[C@@H](O)[C@@H](O[C@@H]2[C@@H](O)[C@H](OC3OC(CN)=CCC3N)[C@@H](N)C[C@H]2N)OC[C@]1(C)O (stereo partly specified),inactive: 1.86% [at 75.8 µM]
12,Nc1nc2c(ncn2[C@@H]2O[C@H](CO)[C@@H](O)[C@H]2O)c(=O)[nH]1,inactive: -17.4%
13,CCn1ccnc1C[C@@H]1COc2ccccc2O1,inactive: -5.15%
14,NCCNCCNCCNCCN,inactive: 7.97%
15,CN(C)c1ccnc(-c2ccccc2C(F)(F)F)n1,inactive: 21.3%
16,CCOC(=O)N1CCN(Cc2ccc3c(c2)CN(C(=O)c2sc(C)nc2C)CCO3)CC1,inactive: 17.3%
17,COc1ccccc1CNc1ncncc1-c1ccccc1C,inactive: 3.8%
18,Cc1ccccc1-c1cncnc1NCc1cccs1,inactive: 9.25%
19,CN1CCc2cc(O)c(O)cc2C(c2ccccc2)C1 (stereo unspecified),inactive: 5.8% [at 75.8 µM]
20,COC(=O)[C@@H](c1ccccc1Cl)N1CCc2sccc2C1,inactive: 19%
21,CC(=O)OC1C=C[C@]2(C)C(CC(OC(C)=O)[C@@]3(C)C4=CC(=O)OC(c5ccoc5)[C@]4(C)CCC23)C1(C)C (stereo partly specified),inactive: -21.4%
22,CCNc1ncc2ncc(=O)n(C3CC3)c2n1,inactive: 11.4%
